Earlier results, collected in US5234903A, “Chemically modified hemoglobin as an effective, stable non-immunogenic red blood cell substitute” (Enzon, Inc., priority 1990, dated 1993).

Conditions: no unit printed at the value

B1: U.S. Pat. No. 4,777,244: hemoglobin modified by effector substance (pyridoxal phosphate or inositol hexaphosphate), cross-linked with a dialdehyde (protein, UniProt P69905 2-142; P68871 2-147, looked up)
Hemoglobin subunit alpha: VLSPADKTNVKAAWGKVGAHAGEYGAEALERMFLSFPTTKTYFPHFDLSHGSAQVKGHGKKVADALTNAVAHVDDMPNALSALSDLHAHKLRVDPVNFKLLSHCLLVTLAAHLPAEFTPAVHASLDKFLASVSTVLTSKYR
Hemoglobin subunit beta: VHLTPEEKSAVTALWGKVNVDEVGGEALGRLLVVYPWTQRFFESFGDLSTPDAVMGNPKVKAHGKKVLGAFSDGLAHLDNLKGTFATLSELHCDKLHVDPENFRLLGNVLVCVLAHHFGKEFTPPVQAAYQKVVAGVANALAHKYH
modifications: effector-modified, dialdehyde cross-linked
P50: 38.6
